Measurements as given in the supplement of paper PMC3334620.
In all, about 33,000 sequences were measured (“E-score (-0.5 to 0.5)”: median about -0.041, highest 2% from about 0.37 on). This is one part of the list.

What follows are sequences tested against T1, Ecm22 (UniProt Q05958) (assay: PBM E-score (8-mer binding enrichment) (E-score (-0.5 to 0.5)); higher = stronger / more preferred TF binding; most listed sequences are background and not binding sites). Settings: protein concentration: 200 nM; construct: GST-full length.
T1 sequence: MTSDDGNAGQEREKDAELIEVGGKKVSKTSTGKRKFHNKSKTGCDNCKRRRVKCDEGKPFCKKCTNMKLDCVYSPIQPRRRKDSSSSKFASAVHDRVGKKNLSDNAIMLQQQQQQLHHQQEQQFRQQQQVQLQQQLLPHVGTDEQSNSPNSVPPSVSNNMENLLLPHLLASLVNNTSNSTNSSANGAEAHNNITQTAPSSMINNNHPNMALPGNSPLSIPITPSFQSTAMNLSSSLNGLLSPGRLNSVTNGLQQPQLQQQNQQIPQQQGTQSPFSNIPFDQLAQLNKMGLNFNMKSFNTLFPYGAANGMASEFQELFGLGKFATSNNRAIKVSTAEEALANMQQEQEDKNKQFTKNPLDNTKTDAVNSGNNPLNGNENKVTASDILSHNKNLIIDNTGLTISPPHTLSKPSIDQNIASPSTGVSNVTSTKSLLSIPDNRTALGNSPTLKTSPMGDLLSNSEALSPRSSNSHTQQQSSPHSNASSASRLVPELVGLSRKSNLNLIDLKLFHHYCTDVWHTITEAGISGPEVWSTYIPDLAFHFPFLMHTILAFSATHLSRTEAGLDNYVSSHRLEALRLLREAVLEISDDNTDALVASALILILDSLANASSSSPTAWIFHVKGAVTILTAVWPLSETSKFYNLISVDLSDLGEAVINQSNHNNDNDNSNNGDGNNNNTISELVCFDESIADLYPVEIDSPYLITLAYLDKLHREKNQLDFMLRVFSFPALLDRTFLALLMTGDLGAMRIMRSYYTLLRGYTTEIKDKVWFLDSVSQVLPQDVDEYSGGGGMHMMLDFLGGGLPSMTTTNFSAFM
In short: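 Full-length yeast transcription factors or their DNA-binding domains, GST-tagged and expressed with PURExpress, were applied at about 100-200 nM to universal all-10-mer Agilent arrays. These arrays had been made double-stranded by primer extension on fresh or once-stripped slides. Detection used fluorescent anti-GST, normalisation used masliner, and E-scores for ungapped eight-base words pooled with reverse complements came from the Universal PBM Analysis Suite.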

Sequence | PBM E-score
AATACGGC | 0.268
GGAAACAA | 0.0422
ACACCATG | -0.217
CCAAACAA | -0.0688
GCAGGAGC | -0.1
CACGTCGC | 0.0933
ATCCACAA | -0.167
ATTCCTTC | -0.0434
GAGATATA | 0.0889
CTATCGGC | -0.2
CGTTGTGC | 0.116
AAGGCGAC | -0.111
ACGGCAGT | 0.239
CAGCTGAC | -0.161
CACACTCG | 0.188
CGGGGCGA | 0.0991
AGTACGAT | 0.407
CAGTAGGC | -0.0515
AACCCAAG | -0.132
GTTATATA | 0.057
CCGCGCGA | 0.117
TGTACGAA | 0.48
ATCAACTC | 0.0707
CTCGAGAC | 0.102
AAGTTGCA | -0.0597

Sequence | PBM E-score
AAGCGGCA | 0.0699
GAAGCAAA | -0.142
ACCAACTC | -0.0123
ACGCCAGT | 0.0663
AGTCTAAA | -0.107
CTTATACC | 0.028
CCAGAAAC | 0.0195
GGGGCCCC | -0.277
CTTCCGAC | -0.0229
GTTTCGTA | 0.44
CTTGTGGC | -0.239
ATTATAAT | 0.139
GTACGTTA | 0.343
ACCTCCGT | 0.00722
CACTTAAC | 0.0547
ACAATCAG | -0.0188
CACGGCAC | -0.106
GGGTCTTA | -0.247
TGCTTCAA | -0.27
ACATTCCA | -0.103
ATCCCAGA | -0.278
TCTATGAA | 0.00491
CCAAAACA | -0.175
CCACAGAG | -0.00864
ACCTGCCA | -0.151

Sequence | PBM E-score
GGCTGCAA | -0.248
TGTGGTAA | -0.0312
AGTCACAT | -0.0411
TAATCGGA | 0.16
ATCCTCGA | -0.0772
CTCACAAC | 0.0387
CGTTAAGA | 0.222
ACGGAAAA | 0.175
CGCGAGAG | 0.233
AACCGGAC | -0.0924
ATGGTCAC | -0.0259
ACCTCTCG | 0.104
AGGCAGTG | -0.149
ATGTAGCG | 0.0835
ATAGAGGA | -0.188
AGGCCGCC | -0.266
GAGATCCC | -0.109
ACCGGCCA | -0.0895
AATGGATC | -0.018
ACCTCAGA | -0.319
GAGATAAA | 0.0228
AAACATCC | -0.0305
CTACACGA | 0.315
AACATGAG | -0.126
ATGGCAAA | -0.136

Sequence | PBM E-score
AATGTATC | 0.0552
AGAAGAAC | 0.0485
CGCATGAA | 0.178
CACACACA | -0.0219
AGGCACAT | -0.166
CCTGCGAA | 0.00017
GCGTCGAA | 0.0462
CAGCAGAA | 0.0354
CCCATCCC | -0.215
CTAACTAG | -0.0303
AAAACCGA | 0.298
AGCAGGGA | -0.269
ATTAATCA | 0.0695
CCTGAAGA | 0.0204
GAACGACC | 0.451
TCATGACA | 0.124
TCCCGTCA | -0.085
CTCCACAG | -0.248
CGCGATGA | 0.126
AATCGAGG | 0.0537
AATGTCTG | -0.0966
AATAGAGT | -0.0278
CAAGTGAG | -0.224
CAATGTAA | 0.0818
TAAAACGA | 0.362

Sequence | PBM E-score
ATGTACCC | -0.151
ACAACCAG | -0.0366
CAAGAGGG | -0.262
ACCACCCG | -0.112
AACGTATG | 0.207
TACGGGAA | 0.356
AGGAGTTA | -0.0226
CGGGAGAA | -0.0353
AGGGCTAT | -0.384
ACCTAGTC | -0.109
CCTCATGA | -0.0913
TCACATCA | -0.104
GACCACCC | -0.188
ATCCGTTG | 0.0365
TACACGAA | 0.31
ATGGATGA | -0.0351
AAGCCTTG | 0.0277
ACGTAAGT | 0.0968
CCTATCCA | -0.284
ACCTTGAA | -0.0857
CCGGAGCC | 0.0458
GCCTGGCC | -0.178
ATACGATA | 0.458
GACTATGC | 0.16
ACTATGAC | -0.108

Sequence | PBM E-score
ATTTGTCG | 0.155
AAATTACG | 0.126
ACGAACTG | 0.289
AGGGATGC | -0.223
TCATATCA | -0.0529
CCATCCAC | -0.202
AACTGATC | 0.04
CCGCAACG | 0.377
ATTATCAA | 0.0606
ATAGGGTG | -0.2
GTTGGATA | -0.123
AGTCATCC | -0.121
CATAAGGA | -0.0351
GCGCGTAC | 0.261
CAGCCCGG | -0.117
CCCATCGG | 0.0599
AGGCTCTA | -0.167
ACTCTTGG | -0.0829
CTCCGACA | -0.0109
TCAAGAGA | -0.0131
ATCGCTCC | 0.185
CACTACCC | -0.281
ACGACATC | 0.355
ACTGGCGA | -0.125
AATGGAAG | -0.052

Sequence | PBM E-score
CTGCCGAA | 0.0241
CCTGGAAG | -0.318
ACACCGAG | 0.0852
CAGGATCG | 0.17
AAAGAGAG | -0.123
ACTAGCGC | -0.12
CCCGGAAA | -0.056
ACTAATCA | 0.0133
CAATTTCG | 0.0809
GCGCGCAA | 0.122
ACAAGGAA | 0.126
CTACTATA | 0.0369
AAGTTGGT | 0.0141
ACAATCCC | -0.0294
CAAGTGTA | -0.183
CTATGTGC | -0.144
AGTCGTGA | 0.0257
CGGGCGAC | -0.183
AGCATGCG | -0.00866
CCGGTCTC | -0.113
ACTAGAGA | -0.157
AGTACTCA | -0.122
GTACCGGA | 0.265
CCGGGATA | 0.123
CGCCGTCC | -0.0471

Sequence | PBM E-score
GGGGGTTA | -0.298
GACCATAC | 0.0838
GGCGACCC | -0.138
CGTATTGC | 0.181
ACGTTGGC | -0.113
GGGGTTAC | 0.0772
CTTGGACC | -0.134
AGCAGAAC | 0.177
CGGGAATA | 0.0624
ACCTTCCC | -0.107
CTAGCACC | -0.156
GACTGGTA | 0.0633
AGCACTTG | -0.0389
AAACGCAG | 0.208
AAGTTCAG | -0.0681
CGCTGACC | -0.0863
AGTTAAGA | -0.182
AGTAGTAG | 0.0183
CCTTACAA | -0.151
AATATACT | -0.0273
ACTTGCCC | -0.208
GCTCAGCC | -0.16
GGGACCAA | -0.0638
AAGGATTC | -0.311
CAAACTAA | 0.122

Sequence | PBM E-score
CGATCCCG | 0.0527
TATGGTGA | -0.044
CTCCGCCA | -0.248
GAGGGGCC | -0.0781
ATAAGCTC | 0.0611
CGAAACCC | 0.0514
ACACGCTG | -0.159
CATAGTTA | 0.0166
ACTTCGCT | 0.185
AGCGTGGC | -0.0861
CTGTCGGC | 0.0934
GATTTGAC | 0.202
CCAGCTGC | -0.292
AATCTATG | 0.183
GAGGACAA | -0.0803
ATAGCCCA | -0.264
CCCTGACA | -0.298
CCCCGCGA | 0.0886
CGGAGGTC | 0.0662
